# Results from PubChem BioAssay AID1030 (National Center for Advancing Translational Sciences (NCATS), 2008).
# About 16,000 (7.3%) of roughly 220,000 compounds were called active. This list was built around the results that the source calls inconclusive (neither active nor inactive); the mix of calls is not that of the screen. The call rests on the fitted dose curve; in most records, active means well fitted inhibition curve with a large enough effect (not every such curve was filed as active); inconclusive means small, poorly fitted or top-dose-only effect, or another doubt; inactive means no such curve, though single readings can be large or run the other way. No potency is given beside an inconclusive call; the fits are too rough.
# Target: Aldehyde dehydrogenase 1A1 (Homo sapiens) (UniProt P00352)
# UniProt P00352, sequence (P00352 whole entry, looked up): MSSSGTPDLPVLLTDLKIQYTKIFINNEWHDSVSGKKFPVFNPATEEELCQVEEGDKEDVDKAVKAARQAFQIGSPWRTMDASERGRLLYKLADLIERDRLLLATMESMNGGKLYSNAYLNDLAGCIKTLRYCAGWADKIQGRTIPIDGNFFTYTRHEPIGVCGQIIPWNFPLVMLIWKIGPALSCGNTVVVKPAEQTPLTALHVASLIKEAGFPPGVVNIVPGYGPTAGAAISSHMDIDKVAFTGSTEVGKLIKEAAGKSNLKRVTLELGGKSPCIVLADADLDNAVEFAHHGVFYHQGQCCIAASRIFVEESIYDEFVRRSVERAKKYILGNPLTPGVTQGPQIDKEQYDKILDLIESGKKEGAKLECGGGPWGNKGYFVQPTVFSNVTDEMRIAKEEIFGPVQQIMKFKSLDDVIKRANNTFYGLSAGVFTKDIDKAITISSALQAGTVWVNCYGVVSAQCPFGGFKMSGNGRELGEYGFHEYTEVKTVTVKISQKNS
# Assay: qHTS Assay for Inhibitors of Aldehyde Dehydrogenase 1 (ALDH1A1);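 on activity, negative = inhibition: plate controls were no enzyme wells and a reference inhibitor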
# Details: Purified ALDH1A1, NADH fluorescence, propionaldehyde substrate; series mostly up to 75.3 µM
# Potency means the concentration at half of the fitted maximal effect; tags describe the fitted curve by direction and shape.
SMILES,Potency,"activity, negative = inhibition"
CC(C)c1csc(CN2CCC(N3CCC(C(=O)NCC4CCCO4)CC3)CC2)n1 (stereo not drawn),inactive,–
COc1ccc(CNC(=O)c2cccc(-c3ccc(C)c4ccccc34)n2)cc1,"inconclusive [inhibitor, single point]",–
C=CCn1nc(-c2ccccc2)c2c(C)onc2c1=O,"inconclusive [inhibitor, single point]",–
COc1ccc(/C=N/NC(=O)c2ccc(CSc3nc(C)cc(C)n3)cc2)c(OC)c1OC,"inconclusive [inhibitor, single point]",–
Cc1cccc2c1N(CCCOc1ccc(C(C)(C)C)cc1)C(=O)C2=O,active: 0.0891 µM,–
CCN(c1ccc(NC(=O)COC(=O)c2cc3ccccc3oc2=O)cc1)C(C)C,"inconclusive [inhibitor, single point]",–
Cc1ccc(N2CC(C(=O)Nc3ccc(C)c(S(=O)(=O)N(C)C)c3)CC2=O)cc1 (stereo not drawn),inactive,–
O=C1NC(c2ccccc2OC(F)F)Oc2ccccc21 (stereo not drawn),"inconclusive [inhibitor, partial curve]",–
C(/C=C\c1ccccc1)=Nc1ccc2c(c1)Cc1ccccc1-2,"inconclusive [inhibitor, single point]",–
Cc1ccc(NC2=NC(c3ccco3)n3c(nc(C)cc3=O)N2)c(C)c1 (stereo not drawn),inactive,–
COc1ccccc1CCn1c(=O)c(-c2cccc(F)c2)nc2cncnc21,"inconclusive [inhibitor, single point]",–
O=C(Oc1ccnc2cc(Cl)ccc12)N1CCCCCC1,active: 5.01 µM,–
CCCn1c(SCC(=O)N2CCCCC2)nnc1C(C)C,"inconclusive [inhibitor, single point]",–
O=C1CC[C@@]23/C=C/C(=O)NCCCCNCCCNC(=O)/C=C/c4ccc(c2c4)OC3C1 (stereo partly drawn),inactive,–
CCn1c(=O)c(-c2cc(=O)[nH][nH]2)c(O)c2ccccc21,"inconclusive [inhibitor, single point]",–
O=C(NCCNc1ccc([N+](=O)[O-])cc1C(F)(F)F)c1ccccc1F,"inconclusive [inhibitor, single point]",–
Cc1ccc(NC(=S)N(Cc2ccc(Br)cc2)Cc2ccc(C(=O)O)cc2)cc1C,"inconclusive [inhibitor, single point]",–
CCCn1c(-c2ccccc2)nc2c(=O)n(C)c(=O)[nH]c21,"inconclusive [inhibitor, partial curve]",–
COc1ccc(CNC(=O)CSc2ccsc2[N+](=O)[O-])cc1,active: 14.1 µM,–
CNC(=S)N/N=C/c1c(C)nn(-c2ccc(F)cc2)c1Cl,inactive,–
CCOc1ncccc1C(=O)OCC(=O)c1ccc(Cl)s1,"inconclusive [inhibitor, single point]",–
O=C(N/N=C/c1ccc(O)cc1)c1[nH]c2ccc(Br)cc2c1-c1ccccc1,"inconclusive [inhibitor, single point]",–
CCn1c(C(=O)N2CCCC(C(=O)NCCCc3ccccc3)C2)cc2sccc21 (stereo not drawn),"inconclusive [inhibitor, partial curve]",–
CC(=O)c1cccc(NC(=S)NC(=O)c2ccc(C)cc2)c1,"inconclusive [inhibitor, single point]",–
C=CCNC(=S)NNc1nc2c(c(=O)[nH]1)C1(CCCC1)Cc1ccccc1-2,active: 3.55 µM,–

SMILES,Potency,"activity, negative = inhibition"
COCc1cc(C)nc(OCC(=O)N/N=C/c2cc(C)n(-c3c(C)cccc3C)c2C)c1C#N,"inconclusive [inhibitor, single point]",–
C=CCn1c(-c2cccnc2Cl)nc2cc(Cl)c(Cl)cc21,"inconclusive [inhibitor, single point]",–
CCCOc1ccc(Cc2nn3c(=O)/c(=C/c4ccco4)sc3nc2=O)cc1,inactive,–
CCc1cc(C(N)=O)c(NC(=O)c2ccc(OC)cc2)s1,"inconclusive [inhibitor, single point]",–
COc1ccc(C(=NNc2ccccc2C(=O)O)c2ccc(OC)cc2)cc1,"inconclusive [inhibitor, single point]",–
CCOC(=O)c1cc(C(C)=O)c(=O)n(C)c1N,"inconclusive [inhibitor, single point]",–
CCN(CC)C(=O)C1CCCN(c2ccccc2[N+](=O)[O-])C1 (stereo not drawn),active: 12.6 µM,–
CCCn1c(N)c(N(CCOC)C(=O)/C=C/c2ccc(C(=O)OC)cc2)c(=O)[nH]c1=O,"inconclusive [inhibitor, single point]",–
CCCOc1ccc(OCC(=O)c2[nH]c(C)c(C(C)=O)c2C)cc1,inactive,–
O=C(Oc1coc(CSc2nnc(NC(=O)C3CC3)s2)cc1=O)c1c(F)cccc1F,"inconclusive [inhibitor, partial curve, poor fit]",–
COCCNC(=O)CSc1ncnc2sccc12,inactive,–
COc1ccccc1C1CN(c2ccccc2)N=C1c1cccs1 (stereo not drawn),"inconclusive [inhibitor, partial curve]",–
CCCCC(=O)Nc1ccc(C(=O)N2CCCC(C(=O)OCC)C2)cc1 (stereo not drawn),"inconclusive [inhibitor, single point]",–
Cc1ccc(OCC(O)CN2CCN(c3ccccc3)CC2)cc1 (stereo not drawn),inactive,–
O=C(Cn1nc(Cl)nc1Cl)c1ccc2c(c1)OCCO2,active: 1.12 µM,–
O=C(c1cnn2c(C(F)(F)F)cc(-c3cccs3)nc12)N1CCOCC1,"inconclusive [inhibitor, single point]",–
COc1ccc(C)cc1NC(=O)c1ccoc1C,inactive,–
COc1ccc(C(CC(=O)Nc2ccc(C)cc2)NC(=O)C(F)(F)F)cc1 (stereo not drawn),inactive,–
COc1ccc(-c2nc3cnc(N4CCN(C)CC4)nc3n(CCc3ccccc3)c2=O)cc1,"inconclusive [inhibitor, partial curve]",–
CCSc1nnc(NC(=O)NC2CCCCC2)s1,"inconclusive [inhibitor, partial curve]",–
COc1ccc(CC(=O)NCc2nc(-c3ccccc3)no2)cc1,"inconclusive [inhibitor, partial curve]",–
COC(=O)C1(O)CC(CC(C)C)=NN1C(=O)c1ccccc1 (stereo not drawn),inactive,–
C[C@H]1Cc2c(COc3ccccc3)nc3c(c2CO1)CN(S(=O)(=O)c1ccc(C#N)cc1)CC3,–,inactive: 5.95% [at 13.5 µM]
CCS(=O)(=O)N1CCCC(C(=O)NCc2ccc(C)cc2)C1 (stereo not drawn),"inconclusive [inhibitor, partial curve, poor fit]",–
CC[n+]1c(/C=C/c2c[nH]c3ccccc23)ccc2cc(C)ccc21,inactive,–

SMILES,Potency,"activity, negative = inhibition"
COC(=O)C1=C(C)N=C2SC(C#N)=C(N)N2C1c1ccc(OCc2ccccc2)cc1 (stereo not drawn),"inconclusive [inhibitor, partial curve]",–
COc1ccc(C(CC(=O)NCc2ccccc2)C(C)C)cc1 (stereo not drawn),inactive,–
CCN1CCCC1Cn1cnc2c([nH]c3ccc(Cl)cc32)c1=O (stereo not drawn),"inconclusive [inhibitor, partial curve]",–
CC1=CCC2COC(c3ccc[n+](Cc4ccccc4)c3)C1C2 (stereo not drawn),"inconclusive [inhibitor, single point]",–
CC(=O)c1ccc(NC(=S)NN2C(C)CCCC2C)cc1 (stereo not drawn),inactive,–
O=C(c1cc(-c2ccccc2)on1)N1CCN(C(=O)c2ccco2)CC1,"inconclusive [inhibitor, single point]",–
Cc1nc2cnc(Oc3ccccc3)nc2n(C)c1=O,"inconclusive [inhibitor, single point]",–
CCCc1cc(=O)oc2c(CN3CCOCC3)c(O)ccc12,"inconclusive [inhibitor, partial curve]",–
COC(=O)[C@H]1C[C@H]2CC[C@H](O)C[C@H]2N1Cc1c(F)cccc1Cl,inactive,–
O=C(O)/C=C/C(=O)Nc1cccnc1,"inconclusive [inhibitor, single point]",–
N#Cc1c(/N=C/c2cccs2)sc2c1CCC2,"inconclusive [inhibitor, partial curve]",–
CC1(C)C(C=C(Cl)Cl)C1C(=O)N(Cc1ccccc1Cl)C1CCS(=O)(=O)C1 (stereo not drawn),"inconclusive [inhibitor, partial curve]",–
O=C(NC(=S)NCC1COc2ccccc2O1)c1ccccc1 (stereo not drawn),"inconclusive [inhibitor, single point]",–
COc1ccccc1NC(=O)COC(=O)C1CC1,inactive,–
Cc1ccc(/C=C/C(=O)NCc2cccs2)c(C)c1,inactive,–
O=C(CSc1ncnc2[nH]ncc12)Nc1cccc(Oc2ccccc2)c1,active: 20 µM,–
N#Cc1c2ccccc2nc2ccccc12,"inconclusive [inhibitor, single point]",–
CCCN1CN(Cc2ccccc2)CC2=C1CC(C)(C)CC2=O,active: 7.94 µM,–
COc1ccc(-c2cc(C(=O)Nc3cccc(S(=O)(=O)NCc4ccco4)c3)c3ccccc3n2)cc1OC,"inconclusive [inhibitor, single point]",–
COC(=O)c1cc(C#N)c(N(C)Cc2ccccc2)nc1C,"inconclusive [inhibitor, partial curve]",–
NS(=O)(=O)c1cccc(NC(=O)c2cccnc2Oc2ccccc2)c1,inactive,–
CCS(=O)(=O)c1nc(S(=O)(=O)c2ccc(Cl)cc2)c(NCc2ccco2)s1,"inconclusive [inhibitor, partial curve]",–
CCC(C)CN1CCC(CO)(Cc2ccccc2Cl)CC1 (stereo not drawn),inactive,–
